Changes are numbered by the printed parent chain; changes in the protein carry UniProt numbers. The list shows a part of the results.
T1: RBFOX1 RRM RbFoxmut (Fox-RRM*) (Homo sapiens, UniProt Q9NWB1 109-208, R118D;E147R;N151S;E152T)
T1 sequence: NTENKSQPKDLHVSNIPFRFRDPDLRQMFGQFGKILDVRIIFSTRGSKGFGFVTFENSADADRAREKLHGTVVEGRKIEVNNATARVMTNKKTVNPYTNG

B1: AAGGCGA (DNA:RNA)
RNA: GGGAGACCGGAAUUCAGAUUGUCCAAGGCGAUUAAAUCCCGUCGUAGCCACCA
DNA 1: CAATCTGAATTCCGGTCTCCC
DNA 2: TGGTGGCTACGACGGGATT
B2: GAACAGC (DNA:RNA)
RNA: B1 RNA with A25G, G27A, G28C, C29A, A31C
DNA 1: CAATCTGAATTCCGGTCTCCC
DNA 2: TGGTGGCTACGACGGGATT
B3: CUAACAU (DNA:RNA)
RNA: B1 RNA with A25C, A26U, G27A, G28A, G30A, A31U
DNA 1: CAATCTGAATTCCGGTCTCCC
DNA 2: TGGTGGCTACGACGGGATT
B4: UUAGAAC (DNA:RNA)
RNA: B1 RNA with A25U, A26U, G27A, C29A, G30A, A31C
DNA 1: CAATCTGAATTCCGGTCTCCC
DNA 2: TGGTGGCTACGACGGGATT
B5: UGGGAGC (DNA:RNA)
RNA: B1 RNA with A25U, A26G, C29A, A31C
DNA 1: CAATCTGAATTCCGGTCTCCC
DNA 2: TGGTGGCTACGACGGGATT
B6: ACGAGUA (DNA:RNA)
RNA: B1 RNA with A26C, G28A, C29G, G30U
DNA 1: CAATCTGAATTCCGGTCTCCC
DNA 2: TGGTGGCTACGACGGGATT
B7: GCCAGGG (DNA:RNA)
RNA: B1 RNA with A25G, A26C, G27C, G28A, C29G, A31G
DNA 1: CAATCTGAATTCCGGTCTCCC
DNA 2: TGGTGGCTACGACGGGATT
B8: GGGAUUA (DNA:RNA)
RNA: B1 RNA with A25G, A26G, G28A, C29U, G30U
DNA 1: CAATCTGAATTCCGGTCTCCC
DNA 2: TGGTGGCTACGACGGGATT
B9: GCCGCUC (DNA:RNA)
RNA: B1 RNA with A25G, A26C, G27C, G30U, A31C
DNA 1: CAATCTGAATTCCGGTCTCCC
DNA 2: TGGTGGCTACGACGGGATT
B10: UUCCAUG (DNA:RNA)
RNA: GGGAGACCGGAAUUCAGAUUGUCCUUCCAUGUUAAAUCCCGUCGUAGCCACCA
DNA 1: CAATCTGAATTCCGGTCTCCC
DNA 2: TGGTGGCTACGACGGGATT
B11: AGGACUC (DNA:RNA)
RNA: B1 RNA with A26G, G28A, G30U, A31C
DNA 1: CAATCTGAATTCCGGTCTCCC
DNA 2: TGGTGGCTACGACGGGATT
B12: GCCAUGA (DNA:RNA)
RNA: B1 RNA with A25G, A26C, G27C, G28A, C29U
DNA 1: CAATCTGAATTCCGGTCTCCC
DNA 2: TGGTGGCTACGACGGGATT
B13: GAGCCCU (DNA:RNA)
RNA: B1 RNA with A25G, G28C, G30C, A31U
DNA 1: CAATCTGAATTCCGGTCTCCC
DNA 2: TGGTGGCTACGACGGGATT
B14: AGAAAGU (DNA:RNA)
RNA: B1 RNA with A26G, G27A, G28A, C29A, A31U
DNA 1: CAATCTGAATTCCGGTCTCCC
DNA 2: TGGTGGCTACGACGGGATT
B15: GUCGAAU (DNA:RNA)
RNA: B10 RNA with U25G, C28G, U30A, G31U
DNA 1: CAATCTGAATTCCGGTCTCCC
DNA 2: TGGTGGCTACGACGGGATT
B16: GUCCGAU (DNA:RNA)
RNA: B10 RNA with U25G, A29G, U30A, G31U
DNA 1: CAATCTGAATTCCGGTCTCCC
DNA 2: TGGTGGCTACGACGGGATT
B17: AUCAAUC (DNA:RNA)
RNA: B10 RNA with U25A, C28A, G31C
DNA 1: CAATCTGAATTCCGGTCTCCC
DNA 2: TGGTGGCTACGACGGGATT
B18: UAUCAAC (DNA:RNA)
RNA: B10 RNA with U26A, C27U, U30A, G31C
DNA 1: CAATCTGAATTCCGGTCTCCC
DNA 2: TGGTGGCTACGACGGGATT
B19: ACACAAU (DNA:RNA)
RNA: B10 RNA with U25A, U26C, C27A, U30A, G31U
DNA 1: CAATCTGAATTCCGGTCTCCC
DNA 2: TGGTGGCTACGACGGGATT
B20: UUAUUGC (DNA:RNA)
RNA: B10 RNA with C27A, C28U, A29U, U30G, G31C
DNA 1: CAATCTGAATTCCGGTCTCCC
DNA 2: TGGTGGCTACGACGGGATT
B21: UUACACC (DNA:RNA)
RNA: B10 RNA with C27A, U30C, G31C
DNA 1: CAATCTGAATTCCGGTCTCCC
DNA 2: TGGTGGCTACGACGGGATT
B22: UAAUCAU (DNA:RNA)
RNA: B1 RNA with A25U, G27A, G28U, G30A, A31U
DNA 1: CAATCTGAATTCCGGTCTCCC
DNA 2: TGGTGGCTACGACGGGATT
B23: AGUGAGC (DNA:RNA)
RNA: B1 RNA with A26G, G27U, C29A, A31C
DNA 1: CAATCTGAATTCCGGTCTCCC
DNA 2: TGGTGGCTACGACGGGATT
B24: AUCAAGC (DNA:RNA)
RNA: B10 RNA with U25A, C28A, U30G, G31C
DNA 1: CAATCTGAATTCCGGTCTCCC
DNA 2: TGGTGGCTACGACGGGATT
B25: AGAGGCU (DNA:RNA)
RNA: B1 RNA with A26G, G27A, C29G, G30C, A31U
DNA 1: CAATCTGAATTCCGGTCTCCC
DNA 2: TGGTGGCTACGACGGGATT
B26: CAUGACG (DNA:RNA)
RNA: B1 RNA with A25C, G27U, C29A, G30C, A31G
DNA 1: CAATCTGAATTCCGGTCTCCC
DNA 2: TGGTGGCTACGACGGGATT
B27: CCAUGUU (DNA:RNA)
RNA: B10 RNA with U25C, U26C, C27A, C28U, A29G, G31U
DNA 1: CAATCTGAATTCCGGTCTCCC
DNA 2: TGGTGGCTACGACGGGATT
B28: AGCUCCU (DNA:RNA)
RNA: B1 RNA with A26G, G27C, G28U, G30C, A31U
DNA 1: CAATCTGAATTCCGGTCTCCC
DNA 2: TGGTGGCTACGACGGGATT
B29: CUAUCCA (DNA:RNA)
RNA: B1 RNA with A25C, A26U, G27A, G28U, G30C
DNA 1: CAATCTGAATTCCGGTCTCCC
DNA 2: TGGTGGCTACGACGGGATT
B30: AGUUAAC (DNA:RNA)
RNA: B1 RNA with A26G, G27U, G28U, C29A, G30A, A31C
DNA 1: CAATCTGAATTCCGGTCTCCC
DNA 2: TGGTGGCTACGACGGGATT
B31: GGGAUCU (DNA:RNA)
RNA: B1 RNA with A25G, A26G, G28A, C29U, G30C, A31U
DNA 1: CAATCTGAATTCCGGTCTCCC
DNA 2: TGGTGGCTACGACGGGATT

Biological target: T1, RBFOX1 RRM RbFoxmut (Fox-RRM*)
Assay: EMSA; HiTS-Eq, 1 nM pool, 10 min; buffer printed only for the single-RNA assays: 10 mM Tris pH 7.5, 150 mM NaCl, 3.4 mM EDTA, 0.001% NP-40, 30 C
Conditions: tags: His6 N-terminal (pET28a); label: 5' 32P
Method in brief: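 Purified RbFox RRM (wild type or mutant) was equilibrated for 10 min in 50 µL with 1 nM of a 5′-radiolabelled pool of RNA with 7 randomized nucleotides, its flanks annealed to DNA oligonucleotides, across increasing protein concentrations. Free RNA was separated by 8% native PAGE, excised, reverse-transcribed, PCR-barcoded and sequenced on an Illumina HiSeq 2500. Relative association constants came from read-count changes of each variant against the control reaction, normalised to the cognate motif.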

Binder	binding signal
B1	0.0874 KA relative to UGCAUGU
B2	0.0737 KA relative to UGCAUGU
B3	0.0924 KA relative to UGCAUGU
B4	0.0639 KA relative to UGCAUGU
B5	0.104 KA relative to UGCAUGU
B6	0.177 KA relative to UGCAUGU
B7	0.057 KA relative to UGCAUGU
B8	0.139 KA relative to UGCAUGU
B9	0.0471 KA relative to UGCAUGU
B10	0.0921 KA relative to UGCAUGU
B11	0.105 KA relative to UGCAUGU
B12	0.134 KA relative to UGCAUGU
B13	0.0513 KA relative to UGCAUGU
B14	0.112 KA relative to UGCAUGU
B15	0.108 KA relative to UGCAUGU
B16	0.118 KA relative to UGCAUGU

Binder	binding signal
B17	0.0606 KA relative to UGCAUGU
B18	0.0614 KA relative to UGCAUGU
B19	0.064 KA relative to UGCAUGU
B20	0.128 KA relative to UGCAUGU
B21	0.0797 KA relative to UGCAUGU
B22	0.0651 KA relative to UGCAUGU
B23	0.131 KA relative to UGCAUGU
B24	0.0904 KA relative to UGCAUGU
B25	0.0973 KA relative to UGCAUGU
B26	0.0944 KA relative to UGCAUGU
B27	0.104 KA relative to UGCAUGU
B28	0.0484 KA relative to UGCAUGU
B29	0.119 KA relative to UGCAUGU
B30	0.0835 KA relative to UGCAUGU
B31	0.17 KA relative to UGCAUGU

Reference: publication PMC9911399, “Two distinct binding modes provide the RNA-binding protein RbFox with extraordinary sequence specificity”
